According to PMC4336329 (PLoS ONE, 2015):
In all, about 310,000 compounds went through this assay and about 2,200 (0.71%) showed an effect of 50% or more. Effects have a minus sign here. Some of the results follow.

What follows are molecules tested against human ether-à-go-go-related gene (hERG) potassium channel (human, UniProt Q12809) (assay: primary screen, population patch clamp on CHO cells stably expressing hERG).
Chain of human ether-à-go-go-related gene (hERG) potassium channel (Q12809 whole entry, looked up): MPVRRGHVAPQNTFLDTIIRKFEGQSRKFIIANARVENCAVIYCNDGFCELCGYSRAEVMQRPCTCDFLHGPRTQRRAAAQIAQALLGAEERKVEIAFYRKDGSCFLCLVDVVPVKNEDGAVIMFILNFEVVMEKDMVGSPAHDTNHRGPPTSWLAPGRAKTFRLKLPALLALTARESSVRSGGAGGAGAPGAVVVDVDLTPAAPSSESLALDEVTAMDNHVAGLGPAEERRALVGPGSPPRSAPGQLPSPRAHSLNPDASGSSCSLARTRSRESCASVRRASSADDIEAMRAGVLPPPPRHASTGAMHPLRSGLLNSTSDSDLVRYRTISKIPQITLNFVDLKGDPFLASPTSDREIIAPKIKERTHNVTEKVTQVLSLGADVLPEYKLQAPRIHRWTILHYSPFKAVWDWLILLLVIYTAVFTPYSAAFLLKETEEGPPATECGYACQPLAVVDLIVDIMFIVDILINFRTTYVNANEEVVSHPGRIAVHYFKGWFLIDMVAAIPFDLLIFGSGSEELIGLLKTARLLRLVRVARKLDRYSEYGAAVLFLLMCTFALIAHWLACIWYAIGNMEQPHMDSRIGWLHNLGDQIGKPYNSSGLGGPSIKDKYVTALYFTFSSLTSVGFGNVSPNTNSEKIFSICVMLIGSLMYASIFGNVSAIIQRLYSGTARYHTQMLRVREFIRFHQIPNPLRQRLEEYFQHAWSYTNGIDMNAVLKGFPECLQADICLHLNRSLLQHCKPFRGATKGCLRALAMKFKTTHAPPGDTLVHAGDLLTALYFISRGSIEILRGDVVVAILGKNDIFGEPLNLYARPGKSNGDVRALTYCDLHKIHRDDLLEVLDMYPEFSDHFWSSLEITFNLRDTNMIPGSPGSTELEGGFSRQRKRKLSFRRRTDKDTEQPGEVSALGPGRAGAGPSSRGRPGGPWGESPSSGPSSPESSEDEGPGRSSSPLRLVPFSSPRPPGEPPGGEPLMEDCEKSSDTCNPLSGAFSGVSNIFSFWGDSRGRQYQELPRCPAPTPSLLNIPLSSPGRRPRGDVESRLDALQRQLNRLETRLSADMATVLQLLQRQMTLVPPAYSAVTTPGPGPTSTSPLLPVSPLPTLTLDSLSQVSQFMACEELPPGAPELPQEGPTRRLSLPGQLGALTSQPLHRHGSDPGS

Compound	hERG current change (%, negative = inhibition) at 1uM [%]
c1ccc(CN2CCN(Cc3ccc4c(c3)OCCO4)CC2)cc1	3.09
CCN(c1ccc(OCC(=O)OCC(=O)c2c(N)n(C)c(=O)n(C)c2=O)cc1)S(=O)(=O)c1ccccc1	13.3
CC(O)c1nc2ccccc2n1CCCc1ccccc1 (centres unmarked)	5.62
COc1ccccc1NC(=S)N(Cc1ccco1)Cc1cc2cc(C)cc(C)c2[nH]c1=O	2.7
COC(=O)C1C(c2ccccc2)C=CC(c2ccccc2)C1C(=O)O (centres unmarked)	9.5
CN(C)S(=O)(=O)N1CCC(C(=O)O)(c2ccccc2)CC1	19.8
O=C(Cn1cncn1)NCc1cccc2ccccc12	5.67
c1ccc2cc(CCCc3cc4ccccc4cn3)ncc2c1	4.58
CCN(CC)C(=O)/C(=C/c1ccc2c(c1)OCO2)NC(=O)c1ccc(Br)cc1	-18.9
Cc1c(Cl)cccc1NC(=S)N(CCCN1CCOCC1)Cc1cccs1	4.82
CCOC(=O)c1c(N)n(-c2ccc(N)cc2)c2nc3ccccc3nc12	-6.28
CCCCCOC(=O)C1=C(C)NC(=O)NC1c1ccc(OC)cc1 (centres unmarked)	9.02
O=C(O)C(=O)O.c1ccc(COc2ccc(OCCN3CCCCC3)cc2)cc1	-27.7
O=C(CCS(=O)(=O)c1ccccc1)Nc1cccc(-c2nc3ccccc3s2)c1	7.34
COc1ccc(/C=C2\SC(=O)N(CCNC(=O)Cn3cnnn3)C2=O)cc1	6.04
COc1ccc(Cc2noc(CN(C)CCN3CCc4ccccc4C3)n2)cc1OC	8.8
CN(C(=O)c1cc(COc2ccc(F)c(F)c2)on1)C1CCOC1 (centres unmarked)	7.42
[O-]c1n[n+](-c2ccc(Cl)cc2Cl)cc2ccccc12	5.72
CSc1nc(-c2ccco2)nn1S(C)(=O)=O	16
CCOc1cc(S(=O)(=O)N(CC)CC)ccc1Cl	8.96
O=c1[nH]c(CSc2nc(-c3ccc(F)cc3)cs2)nc2ccccc12	5.61
O=C(CN1CCCC1)Nc1ccc(F)c(Cl)c1.O=C(O)C(=O)O	13.8

Compound	hERG current change (%, negative = inhibition) at 1uM [%]
c1ccc(CSCc2cn3ccsc3n2)cc1	0.534
COc1ccc(OC)c(S(=O)(=O)Oc2ccc(N)c3ccccc23)c1	14.6
COc1ccccc1NS(=O)(=O)c1cc(NC(=O)Nc2ccccc2)ccc1N1CCCCC1	1.32
CS(=O)(=O)N1CCN(c2ccccc2NC(=O)c2ccc(-c3ccc(Cl)cc3Cl)o2)CC1	11.4
CC(=O)Nc1ccc(N2CCOCC2)c(C(=O)Nc2cccc(C)c2)c1	-6.81
Cc1c(C(C)(C)C)sc(=NC(=O)c2ccccc2O)n1C	15.1
COc1ccc(-c2nnc(NC(=O)CS(=O)(=O)c3ccc(Cl)cc3)o2)c(OC)c1	21.4
O=C1[C@H]2[C@@H](c3ccc(F)cc3)N3C(=O)N(c4cccc(F)c4)C(=O)[C@@]3(Cc3ccc(Cl)cc3)[C@H]2C(=O)N1C1CCCCC1	11.3
CCOC(=O)CSc1nc(C)c(C(C)=O)cc1C(N)=O	16.8
CCCC(C(=O)NCCc1ccc(S(N)(=O)=O)cc1)c1ccccc1 (centres unmarked)	16.4
Cc1cc(OCC(C)C)ccc1/C(O)=C1/C(=O)C(=O)N(Cc2cccnc2)C1c1ccncc1 (centres unmarked)	8.11
COC(=O)CCC(=O)Nc1cccc2c(NC(=O)CCC(=O)OC)cccc12	24.1
Cc1ccc(C(=O)NC2CCCCC2)cc1	12.3
CC1=NN(c2ccccc2)C(=O)C1C(=O)c1ccccc1 (centres unmarked)	0.341
Cc1cc(C)c2c(N)c(C(=O)N3CCN(c4ncccn4)CC3)sc2n1	7.54
CCOc1ccc(NC(=O)CN2CCN(CC(=O)c3ccc(OC)c(OC)c3)CC2)cc1	-56.3
Cc1nc(Cl)sc1C(=O)Nc1ccccc1	14.7
COc1ccc(/C=N/Nc2nc(C)cc(=O)[nH]2)cc1OC	15
CCn1c(CC(=O)Nc2ccccc2)nnc1SCC(=O)Nc1nncs1	16.4
O=C(c1ccc(-n2cccc2)cc1)N1CCCCC1	8.08
CSc1nnc(NC(=O)c2nc(S(=O)(=O)Cc3cccc(C)c3)ncc2Cl)s1	1.83
O=C(CSc1ccc(-c2ccccn2)nn1)NCc1ccccc1	12.1
